Article PMC6471242, “Dereplication by High-Performance Liquid Chromatography (HPLC) with Quadrupole-Time-of-Flight Mass Spectroscopy (qTOF-MS) and Antiviral Activities of Phlorotannins from Ecklonia cava” (Marine Drugs, 2019)

System: neuraminidase
Assay: Immunofluorescence assay of neuraminidase in H1N1-infected MDCK cells
Conditions: 10, 20, and 40 µM, 24 h

Structure (SMILES): Oc1cc(O)cc(Oc2c(O)cc(O)c3c2Oc2c(O)cc4oc5c(Oc6cc(O)cc(O)c6)c(O)cc(O)c5c4c2O3)c1 [Compound 12, Phlorofucofuroeckol A]
- neuraminidase protein expression in viral-infected cell cytoplasm (fluorescence images): decreased neuraminidase protein expression
